The source of these data is the supplement of paper PMC9446081.

The structures appear in SMILES notation. The whole screen tested about 39,000 compounds, of which about 220 (0.56%) showed activity. The list shows a part of the results.
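Also: static incubation at 37 °C against the wild-type strain, values averaged over two biological replicates.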

This experiment deals with Escherichia coli K-12 BW25113. The experiment can be described thus: relative growth (OD600 normalised to plate interquartile mean) (fraction); higher = less growth inhibition, active = 0.2 or less. Conditions: 50 µM; LB; incubation time: overnight (16-24 h).
On to `C[C@H]1CN([C@@H](C)CO)C(=O)c2cccc(NC(=O)CCCCCC(=O)Nc3ccccc3N)c2O[C@H]1CN(C)C(=O)Nc1ccccc1`, for which the relative growth is inactive: 0.983.
For `Cc1noc(C)c1NC(=O)N[C@@H]1CC[C@@H](CC(=O)NCCCN(C)C)O[C@H]1CO` the value was inactive: 1; for `O=C(C[C@@H]1C[C@H]2c3cc(NC(=O)c4ccc5c(c4)OCO5)ccc3O[C@H]2[C@@H](CO)O1)NCc1ccc(Oc2ccccc2)cc1`, inactive: 1.01.
As for `C[C@H](CO)N1C[C@H](C)[C@H](CN(C)C(=O)Nc2ccc3c(c2)OCO3)OCCCC[C@H](C)Oc2ccc(NC(=O)Nc3ccc(C(F)(F)F)cc3)cc2C1=O`, the figure is inactive: 1.01.
For `C[C@H]1CN([C@@H](C)CO)C(=O)c2cccc(NC(=O)C3CC3)c2O[C@H]1CN(C)S(=O)(=O)c1ccccc1` the value was inactive: 0.968; for `COc1ccc(S(=O)(=O)N(C)C[C@@H]2OCCCC[C@H](C)Oc3ccc(NC(=O)Nc4c(C)noc4C)cc3C(=O)N([C@H](C)CO)C[C@@H]2C)cc1`, inactive: 0.983.
Take `Cc1ccc(S(=O)(=O)Nc2ccc3c(c2)C(=O)N([C@H](C)CO)C[C@H](C)[C@@H](CN(C)Cc2ccc(Cl)c(Cl)c2)OCCCC[C@@H](C)O3)cc1`: the relative growth is inactive: 1.01.
As for `Cc1noc(C)c1S(=O)(=O)N(C)C[C@H]1Oc2ccc(NC(=O)Cc3ccccc3)cc2CC(=O)N([C@@H](C)CO)C[C@@H]1C`, the figure is inactive: 0.963; as for `CN1C(=O)c2cc(NC(=O)Cc3cccs3)ccc2OC[C@@H]2O[C@H](CC(=O)NCc3ccc(-c4ccccc4)cc3)CC[C@@H]21`, inactive: 1.02; as for `C[C@@H]1CCCCO[C@@H](CN(C)C(=O)Nc2ccc(C(F)(F)F)cc2)[C@@H](C)CN([C@H](C)CO)C(=O)c2cc(NC(=O)Nc3cccc4ccccc34)ccc2O1`, inactive: 1.02.
For `C[C@H](CO)N1C[C@H](C)[C@H](CN(C)C(=O)Nc2ccc3c(c2)OCO3)Oc2ncc(C#CC3(O)CCCC3)cc2C1=O` the value was inactive: 1; for `C[C@@H]1CCCCO[C@H](CN(C)C(=O)Nc2ccc3c(c2)OCO3)[C@H](C)CN([C@H](C)CO)C(=O)c2cc(NC(=O)Nc3ccccc3)ccc2O1`, inactive: 1.02.
Regarding `NC[C@H]1COC2(CCCCC2)O1`, the relative growth was inactive: 0.995.
As for `O=C(C[C@@H]1CC[C@H]2[C@@H](COC[C@H](O)CN2S(=O)(=O)c2ccccc2F)O1)NCc1ccc(Cl)c(Cl)c1`, the figure is inactive: 1.01; as for `O=C(NOCCO)c1cc(CN2OCCCC2=O)c(F)c(F)c1Nc1ccc(I)cc1F`, inactive: 1.02.
As to `COC(=O)CN1C(=O)CSc2ncccc21`, the relative growth is inactive: 1.01.
As for `C[C@@H]1CCCCO[C@@H](CN(C)C(=O)NC2CCCCC2)[C@H](C)CN([C@@H](C)CO)C(=O)c2cc(NC(=O)C3CCCCC3)ccc2O1`, the figure is inactive: 0.997.
As for `CCCN(C)C[C@H]1OCCCC[C@@H](C)Oc2ccc(NS(=O)(=O)c3cn(C)cn3)cc2C(=O)N([C@H](C)CO)C[C@H]1C`, the figure is inactive: 0.984; as for `CC(C)c1nc(CN(C)C(=O)NC(C(=O)NC(Cc2ccccc2)CC(O)C(Cc2ccccc2)NC(=O)OCc2cncs2)C(C)C)cs1` (centres undefined), inactive: 0.797; as for `C[C@@H]1CN([C@H](C)CO)C(=O)c2cc(NC(=O)NC3CCCCC3)ccc2O[C@@H]1CN(C)C(=O)Nc1ccc(C(F)(F)F)cc1`, inactive: 0.98.
For the compound `C[C@H](CO)N1C[C@H](C)[C@H](CN(C)C(=O)Nc2ccc(F)cc2)Oc2ccc(NC(=O)Nc3cccc4ccccc34)cc2CC1=O`, the relative growth was inactive: 1.01.
`COc1ccc2c3c([nH]c2c1)[C@H](CO)N(C[C@]13CCN(CC1)Cc1nccs1)C(=O)C1CCOCC1`: the relative growth was inactive: 0.931.
For the compound `CCOC(=O)[C@H]1[C@@H]2C(=O)N3CCC[C@H]3[C@H](O[Si](C(C)C)(C(C)C)C(C)C)[C@H]2C=C2CCN(S(=O)(=O)c3ccc(C)cc3)C[C@H]21`, the relative growth is inactive: 1.05.
For `C[C@@H]1CCCCO[C@H](CN(C)CC2CCCCC2)[C@@H](C)CN([C@H](C)CO)C(=O)c2cc(NC(=O)Nc3ccccc3)ccc2O1` the value was inactive: 0.973.
As for `NNC(=O)[C@H]1C[C@H]2C[C@@H]1C[C@@H]2C(=O)NN`, the figure is inactive: 1.03; as for `CC(C)NC(=O)N(C)C[C@@H]1OCCCC[C@H](C)Oc2ccc(NS(=O)(=O)c3cn(C)cn3)cc2C(=O)N([C@@H](C)CO)C[C@@H]1C`, inactive: 0.947; as for `COc1cc(CN(CCc2ccccn2)C(=O)CCCCc2ccccc2)ccc1OCc1ccccc1`, inactive: 1.
For the compound `C1CCN=C(NC2CCCCC2)CC1`, the relative growth was inactive: 0.983.
As for `Cn1cnc(S(=O)(=O)N[C@H]2CC[C@@H](CC(=O)NCC3CC3)O[C@@H]2CO)c1`, the figure is inactive: 1.03.
Regarding `CC(=O)N1[C@@H](CO)[C@H](c2ccccc2)[C@@H]1CNC(=O)CN1CCOCC1`, the relative growth was inactive: 1.04.
As to `C[C@@H]1CN([C@H](C)CO)S(=O)(=O)c2ccc(C#Cc3cccnc3)cc2O[C@@H]1CN(C)C(=O)Nc1ccc2c(c1)OCO2`, the relative growth is inactive: 1.01.
`O=C(C[C@@H]1CC[C@@H]2[C@H](COC[C@H](O)CN2S(=O)(=O)c2ccccc2Cl)O1)NCCc1ccncc1`: the relative growth is inactive: 1.01.
As for `C[C@H](CO)N1C[C@H](C)[C@H](CN(C)C(=O)C2CCOCC2)Oc2cc(C3=CCCC3)ccc2S1(=O)=O`, the figure is inactive: 0.999; as for `O=S(=O)(Cc1nn[nH]n1)c1ccccc1`, inactive: 1.03; as for `Cc1noc(C)c1NC(=O)Nc1ccc2c(c1)CC(=O)N([C@H](C)CO)C[C@@H](C)[C@@H](CN(C)Cc1ccc(Oc3ccccc3)cc1)O2`, inactive: 0.979.
For `COc1ccc(S(=O)(=O)Nc2cccc3c2O[C@@H](CN(C)CC2CC2)[C@@H](C)CN([C@H](C)CO)C3=O)cc1` the value was inactive: 1.03; for `CN(C)CCCNC(=O)C[C@H]1C=C[C@@H](NS(=O)(=O)c2ccccc2)[C@H](CO)O1`, inactive: 0.983.
In the case of `C[C@@H]1CN([C@@H](C)CO)C(=O)CCCn2cc(nn2)CO[C@H]1CN(C)S(=O)(=O)c1cn(C)cn1`, the relative growth was inactive: 1.02.
For `O=C(C[C@@H]1CC[C@H](NC(=O)Cc2ccccn2)[C@@H](CO)O1)NCCc1ccncc1` the value was inactive: 1.02; for `C[C@@H]1CN([C@H](C)CO)C(=O)Cc2cc(NC(=O)Cn3cnnn3)ccc2O[C@@H]1CN(C)Cc1ccc(C(=O)O)cc1`, inactive: 0.975.
As for `COc1cc([C@H]2OC[C@](O)(Cc3ccc(O[C@@H]4O[C@H](CO)[C@@H](O)[C@H](O)[C@H]4O)c(OC)c3)[C@@H]2CO)ccc1O`, the figure is inactive: 1; as for `C[C@H]1CCCCO[C@H](CN(C)C(=O)Nc2ccc(F)cc2)[C@@H](C)CN([C@@H](C)CO)C(=O)c2cc(NS(=O)(=O)c3cccs3)ccc2O1`, inactive: 0.998.
As for `C[C@H](CO)N1C[C@H](C)[C@H](CN(C)C(=O)Nc2cccc3ccccc23)Oc2ncc(C#Cc3ccc(C(F)(F)F)cc3)cc2C1=O`, the figure is inactive: 1.08.
Turning to `C[C@@H]1O[C@H](O[C@@H]2[C@H](Oc3c(-c4ccc(O)cc4)oc4cc(O)cc(O)c4c3=O)O[C@H](CO[C@@H]3O[C@H](C)[C@@H](O)[C@H](O)[C@@H]3O)[C@@H](O)[C@@H]2O)[C@@H](O)[C@H](O)[C@@H]1O`, the relative growth was inactive: 1.02.
For the compound `C[C@@H]1CN([C@@H](C)CO)C(=O)c2cccc(NC(=O)c3cnccn3)c2O[C@@H]1CN(C)Cc1ccc(C(=O)O)cc1`, the relative growth was inactive: 0.997.
As for `COc1ccc(NC(=O)Nc2cccc3c2O[C@@H](CN(C)Cc2ccc(C(=O)Nc4ccccc4N)cc2)[C@H](C)CN([C@@H](C)CO)C3=O)cc1`, the relative growth is inactive: 1.
For `C[C@H]1CN([C@@H](C)CO)C(=O)Cc2cc(NC(=O)Nc3cccc(C(F)(F)F)c3)ccc2O[C@H]1CN(C)S(=O)(=O)c1ccc(Cl)cc1`, the relative growth was inactive: 1.03.
On to `c1ccn(CCN2CCNCC2)c1`, for which the relative growth is inactive: 1.01.
On to `O=C(C[C@H]1CC[C@@H]2[C@H](COC[C@H](O)CN2Cc2cc(F)ccc2F)O1)N[C@@H]1CCN(Cc2ccccc2)C1`, for which the relative growth is inactive: 0.997.
For `CO[C@@H](CN(C)S(=O)(=O)c1ccc(F)cc1)[C@H](C)CN([C@@H](C)CO)S(=O)(=O)c1cccc(Cl)c1` the value was inactive: 1; for `CC(C)NC(=O)Nc1ccc2c(c1)CC(=O)N([C@@H](C)CO)C[C@H](C)[C@H](CN(C)Cc1ccc(-c3ccccc3)cc1)O2`, inactive: 0.979; for `C[C@H](O)C#Cc1cnc2c(c1)C(=O)N([C@H](C)CO)C[C@H](C)[C@H](CN(C)C(=O)CN1CCOCC1)O2`, inactive: 0.975.
For `C[C@H](CO)N1C[C@H](C)[C@H](CN(C)C(=O)Nc2ccccc2)Oc2ccc(NC(=O)CCCN(C)C)cc2C1=O` the value was inactive: 1.01; for `O=C(N[C@@H]1CC=CC[C@H](CC(=O)N(CCO)Cc2ccccc2)C(=O)NCC(c2ccccc2)OC1=O)OCC1c2ccccc2-c2ccccc21` (some centres undefined), inactive: 0.995; for `O=C(C[C@H]1CC[C@@H]2[C@H](COC[C@H](O)CN2S(=O)(=O)c2ccccc2)O1)N[C@H]1CCN(Cc2ccccc2)C1`, inactive: 1.01.
As for `C[C@H]1CN([C@@H](C)CO)C(=O)c2c(c3ccccc3n2C)-c2ccccc2CO[C@H]1CN(C)Cc1ccccc1C(F)(F)F`, the figure is inactive: 1.01; as for `COc1ccc(CN(C)C[C@H]2OCCCC[C@@H](C)Oc3ccc(NC(=O)Nc4ccc(OC)cc4)cc3C(=O)N([C@@H](C)CO)C[C@H]2C)cc1`, inactive: 0.958.
For `Cc1ccc(S(=O)(=O)N(C)C[C@H]2Oc3ccc(NS(=O)(=O)c4cn(C)cn4)cc3CC(=O)N([C@@H](C)CO)C[C@@H]2C)cc1`, the relative growth is inactive: 0.976.
On to `C[C@@H]1CN([C@@H](C)CO)C(=O)c2cc(NC(=O)C3CCCCC3)ccc2O[C@@H]1CN(C)Cc1ccc(Oc2ccccc2)cc1`, for which the relative growth is inactive: 0.991.
